{
  "source": "PubChem BioAssay AID1347165",
  "about": "(National Center for Advancing Translational Sciences (NCATS), 2019)",
  "note": "In all, about 220,000 compounds went through this assay and about 5,700 (2.6%) were called active. Inconclusive means that the source gave no clear call. Such entries were picked first, then a sample of the others. Calls come from the whole dose curve; as a rule, active = well fitted inhibition curve with a large enough effect; inconclusive = small, poorly fitted or top-dose-only effect; inactive = no such curve, though single readings can be large or run the other way. Where the call is inconclusive, the potency comes from a doubtful curve fit. Potency is the fitted concentration of half-maximal effect; tags give direction and shape of the fitted curve.",
  "data": [
    {"molecular_target": "Lysine-specific demethylase 5B (Homo sapiens) (UniProt Q9UGL1)", "sequence (Q9UGL1 whole entry, looked up)": "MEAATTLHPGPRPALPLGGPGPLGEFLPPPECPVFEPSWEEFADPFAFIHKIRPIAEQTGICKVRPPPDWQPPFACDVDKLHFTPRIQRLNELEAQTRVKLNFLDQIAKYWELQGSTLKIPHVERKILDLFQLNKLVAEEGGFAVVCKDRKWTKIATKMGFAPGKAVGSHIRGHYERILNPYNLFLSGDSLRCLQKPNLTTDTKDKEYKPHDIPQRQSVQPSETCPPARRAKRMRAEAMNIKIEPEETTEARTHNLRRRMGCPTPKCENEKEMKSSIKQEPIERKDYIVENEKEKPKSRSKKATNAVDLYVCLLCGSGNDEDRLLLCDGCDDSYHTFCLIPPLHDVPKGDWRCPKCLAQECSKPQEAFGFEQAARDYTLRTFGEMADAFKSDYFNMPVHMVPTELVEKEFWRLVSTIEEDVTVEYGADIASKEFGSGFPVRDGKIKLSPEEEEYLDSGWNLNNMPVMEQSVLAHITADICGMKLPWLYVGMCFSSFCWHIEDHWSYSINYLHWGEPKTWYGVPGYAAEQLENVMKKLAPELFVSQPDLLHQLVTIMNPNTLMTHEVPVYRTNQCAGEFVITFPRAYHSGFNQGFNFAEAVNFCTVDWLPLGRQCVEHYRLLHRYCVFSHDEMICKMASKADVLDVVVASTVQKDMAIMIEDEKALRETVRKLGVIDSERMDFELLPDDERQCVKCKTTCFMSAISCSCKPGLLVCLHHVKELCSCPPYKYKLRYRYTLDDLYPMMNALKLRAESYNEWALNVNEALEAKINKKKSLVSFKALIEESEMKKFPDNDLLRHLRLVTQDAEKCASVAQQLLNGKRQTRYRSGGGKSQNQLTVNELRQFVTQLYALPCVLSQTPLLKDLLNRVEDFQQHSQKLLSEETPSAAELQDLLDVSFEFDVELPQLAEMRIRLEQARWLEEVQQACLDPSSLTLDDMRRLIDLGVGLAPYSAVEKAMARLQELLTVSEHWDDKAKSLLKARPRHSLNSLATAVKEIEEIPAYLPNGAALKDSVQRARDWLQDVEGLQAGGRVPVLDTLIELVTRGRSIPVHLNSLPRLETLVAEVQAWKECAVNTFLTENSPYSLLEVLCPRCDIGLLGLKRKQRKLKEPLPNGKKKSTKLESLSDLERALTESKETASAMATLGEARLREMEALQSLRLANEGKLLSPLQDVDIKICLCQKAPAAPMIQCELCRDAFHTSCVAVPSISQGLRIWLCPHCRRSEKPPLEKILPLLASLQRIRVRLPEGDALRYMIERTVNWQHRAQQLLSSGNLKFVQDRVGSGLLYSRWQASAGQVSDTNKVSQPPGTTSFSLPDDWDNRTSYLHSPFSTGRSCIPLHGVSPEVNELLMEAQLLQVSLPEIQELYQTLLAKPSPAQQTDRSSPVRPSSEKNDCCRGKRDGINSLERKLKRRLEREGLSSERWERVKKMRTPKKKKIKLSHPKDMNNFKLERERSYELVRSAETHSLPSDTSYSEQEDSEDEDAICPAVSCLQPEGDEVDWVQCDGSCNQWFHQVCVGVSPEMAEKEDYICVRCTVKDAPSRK", "test": "Primary screen for KDM5B Histone Demethylases FDH-coupled qHTS; note: nearly all actives have a fitted effect of over 70% in size; for activity change, negative = inhibition: 0% is about no effect", "conditions": "FDH-coupled NADH fluorescence (FDH is formaldehyde dehydrogenase); activity change, negative = inhibition: at 57.7 µM (top of the series) unless noted", "method_in_brief": "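qHTS format, multiple compound concentrations. Buffer 50 mM HEPES pH 7.5/0.01% Tween-20; 200 nM KDM5BΔAP final; 10 min compound preincubation; substrate-mix levels 12.5 µM peptide, 25 µM α-KG, 0.25 mM NAD⁺; 30 min RT; ΔRFU.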", "values": [
      {"smiles": "N#C/C(=C\\c1ccc(-c2cccc(C(=O)O)c2)o1)c1nc2ccccc2[nH]1", "Potency": "inconclusive: 35.5 µM [inhibitor, single point]"},
      {"smiles": "COC(=O)c1ccccc1NC1c2ccccc2C(=O)N1Cc1ccccc1Cl", "note": "(stereo unspecified)", "Potency": "inconclusive: 28.2 µM [inhibitor, partial curve, poor fit]"},
      {"smiles": "CC(O)c1cc2n(n1)CCCN(CCn1cc[nH]c1=O)C2", "note": "(stereo unspecified)", "Potency": "inconclusive: 22.4 µM [inhibitor, partial curve, poor fit]"},
      {"smiles": "CC(=O)Nc1ccc(CC(=O)NCCC(c2ccccc2)c2ccccc2)cc1", "Potency": "inconclusive: 35.5 µM [inhibitor, partial curve, poor fit]"},
      {"smiles": "O=C(c1cc(-c2cccs2)[nH]n1)N1CCc2c(nc(-c3ccccc3)[nH]c2=O)C1", "Potency": "inconclusive: 22.4 µM [inhibitor, single point]"},
      {"smiles": "CCCOc1ccccc1C(=O)Nc1nonc1CC", "activity change, negative = inhibition": "inactive: -17.6%"},
      {"smiles": "O=c1ccc(N2CCC(NS(=O)(=O)c3ccc(Cl)s3)CC2)nn1CC1CC1", "Potency": "active: 14.1 µM"},
      {"smiles": "OC(c1ccccc1)c1nc(Nc2ccc3c(c2)OCO3)n[nH]1", "note": "(stereo unspecified)", "Potency": "inconclusive: 39.8 µM [inhibitor, partial curve, poor fit]"},
      {"smiles": "CN(C)C[C@@H]1CN(c2ncccn2)C[C@H]1NC(=O)Cc1ccccc1F", "Potency": "active: 31.6 µM"},
      {"smiles": "C#CCOc1ccc(C2C(C(=O)OC)=C(C)NC3=C2C(=O)c2ccccc23)cc1OCC", "note": "(stereo unspecified)", "Potency": "inconclusive: 15.8 µM [inhibitor, partial curve, poor fit]"},
      {"smiles": "O=C(NCCc1ccc(F)cc1)c1ccc(=O)[nH]c1", "activity change, negative = inhibition": "inactive: 24.6%"},
      {"smiles": "Cc1nc(-c2nc3ccccc3s2)cs1", "Potency": "inconclusive: 39.8 µM [inhibitor, single point]"},
      {"smiles": "CN(C)c1cccc(NCc2nc3c(n2Cc2ccccc2)C(=O)N(CCOc2ccccc2)CCN3)c1", "Potency": "inconclusive: 14.1 µM [inhibitor, partial curve]"},
      {"smiles": "CCOc1ccc(Sc2cc(C(=O)NCCCOC)c3ccccc3n2)cc1", "Potency": "inconclusive: 39.8 µM [inhibitor, single point]"},
      {"smiles": "CCOC(=O)c1ccc(N2C=C(C(=O)OC)C(c3ccc(OC)c(O)c3)C(C(=O)OC)=C2)cc1", "Potency": "inconclusive: 39.8 µM [inhibitor, single point]"},
      {"smiles": "CC(NC(=O)/C=C/c1cccs1)C12CC3CC(CC(C3)C1)C2", "note": "(stereo unspecified)", "activity change, negative = inhibition": "inactive: 2.53%"},
      {"smiles": "CCC(CC)NC(=O)Nc1cc(Cl)ccc1C", "activity change, negative = inhibition": "inactive: 3.6%"},
      {"smiles": "CS(=O)(=O)c1ccc(CN2CCC(C(O)c3ccccn3)CC2)cc1", "note": "(stereo unspecified)", "Potency": "inconclusive: 22.4 µM [inhibitor, partial curve]"},
      {"smiles": "COc1ccc2cc(S(=O)(=O)c3ccccc3F)c(=O)oc2c1", "Potency": "inconclusive: 35.5 µM [inhibitor, partial curve, poor fit]"},
      {"smiles": "O=S(=O)(c1ccc(OC(F)(F)F)cc1)N1CCN(Cc2ncc(-c3ccccc3)o2)CC1", "activity change, negative = inhibition": "inactive: -27.6%"},
      {"smiles": "O=C1Nc2ccc(-c3ccc4c(c3)OCO4)cc2C(=O)N2CCN(C(=O)NC3CCCCC3)C[C@H]12", "Potency": "active: 11.2 µM"},
      {"smiles": "Cc1ccc(-c2noc(-c3cccnc3NCc3ccc(Cl)cc3)n2)cc1", "Potency": "inconclusive: 4.47 µM [inhibitor, full curve, poor fit]"},
      {"smiles": "CCC(C)NC(=O)c1ccc(-c2ccc(N3CCSCC3)nc2)cc1", "note": "(stereo unspecified)", "Potency": "inconclusive: 28.2 µM [inhibitor, partial curve, poor fit]"},
      {"smiles": "COc1ccc(-c2cc(N3CCC(NC(=O)COc4ccccc4C)CC3)n[nH]2)cc1", "Potency": "active: 15.8 µM"},
      {"smiles": "Cc1ccc(-c2cnc3n[nH]c(-c4ccccc4)c3n2)cc1", "Potency": "inconclusive: 31.6 µM [inhibitor, partial curve, poor fit]"},
      {"smiles": "CCc1cc(C(c2ccc3c(c2)OCO3)N2CCN(C)CC2)c(NC(=O)c2ccco2)s1", "note": "(stereo unspecified)", "Potency": "inconclusive: 22.4 µM [inhibitor, single point]"},
      {"smiles": "Cc1ccc(S(=O)(=O)[C@H]2CS(=O)(=O)C[C@@H]2NCc2ccccn2)cc1", "Potency": "inconclusive: 10 µM [inhibitor, partial curve, poor fit]"},
      {"smiles": "COc1cccc(N2CCN(C(=O)C3CC(=O)N(c4n[nH]c5cccc(F)c45)C3)CC2)c1", "note": "(stereo unspecified)", "Potency": "inconclusive: 12.6 µM [inhibitor, partial curve]"},
      {"smiles": "CC1(COCC2CC2)COc2ccc(C(=O)NCc3ccc4c(c3)OCO4)cc2N1", "note": "(stereo unspecified)", "Potency": "inconclusive: 5.01 µM [inhibitor, full curve, poor fit]"},
      {"smiles": "CCN(CC)CCNC(=O)C1CCCN(c2nnc(C)c3c(C)n(-c4ccc(Cl)cc4)nc23)C1", "note": "(stereo unspecified)", "Potency": "inconclusive: 17.8 µM [inhibitor, partial curve, poor fit]"},
      {"smiles": "COCCOC1CN(C2CCN(C(=O)c3cccc4[nH]ccc34)CC2)C12CCCCC2", "note": "(stereo unspecified)", "Potency": "active: 22.4 µM"},
      {"smiles": "CC(=O)Nc1cc(C(=O)NC2CCCCC2)c2ccc(C)nc2c1", "Potency": "active: 22.4 µM"},
      {"smiles": "COc1ccc(C(=O)N2CCC(Cc3nc(C(C)C)no3)CC2)cc1OC", "activity change, negative = inhibition": "inactive: -17.4%"},
      {"smiles": "COc1ccc(-c2c(C)oc3cc(OCC(=O)c4ccccc4)ccc3c2=O)cc1", "activity change, negative = inhibition": "inactive: 4.52%"},
      {"smiles": "CCOc1ccc(-c2cn3c(n2)sc2cc(C(=O)NCCC4=CCCCC4)ccc23)cc1", "Potency": "inconclusive: 0.708 µM [inhibitor, partial curve, poor fit]"},
      {"smiles": "COC(C)(C)C(=O)N1CCc2onc(-c3ccc4c(c3)OCO4)c2C1", "Potency": "inconclusive: 15.8 µM [inhibitor, partial curve]"},
      {"smiles": "NC(=O)[C@@H](Cc1ccccc1)NC(=O)[C@@]1(O)C[C@@H](O)[C@H](O)[C@@H](NS(=O)(=O)c2cccc(C(F)(F)F)c2)C1", "Potency": "inconclusive: 35.5 µM [inhibitor, partial curve, poor fit]"},
      {"smiles": "C=CCNC(=O)c1nc(-c2cccc3[nH]ccc23)no1", "activity change, negative = inhibition": "inactive: 13.4%"},
      {"smiles": "Cc1ccc(N2CC(c3noc(-c4nccc5ccccc45)n3)CC2=O)cc1", "note": "(stereo unspecified)", "Potency": "inconclusive: 25.1 µM [inhibitor, partial curve, poor fit]"},
      {"smiles": "Cc1ccc(NC(=O)COc2ccc3c(C)cc(=O)oc3c2)c(C)c1", "activity change, negative = inhibition": "inactive: 1.57%"},
      {"smiles": "Cc1noc(-c2cccn3c(CNC(=O)Cc4cccc(F)c4)nnc23)n1", "Potency": "inconclusive: 28.2 µM [inhibitor, partial curve, poor fit]"}
    ]}
  ]
}
